T1: RBFOX1 RRM (Homo sapiens, UniProt Q9NWB1 109-208)
T1 sequence: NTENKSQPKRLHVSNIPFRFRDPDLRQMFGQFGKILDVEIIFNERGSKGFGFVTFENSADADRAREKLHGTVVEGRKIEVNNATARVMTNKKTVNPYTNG

B1: GUGAGGU (DNA:RNA)
RNA: GGGAGACCGGAAUUCAGAUUGUCCGUGAGGUUUAAAUCCCGUCGUAGCCACCA
DNA 1: CAATCTGAATTCCGGTCTCCC
DNA 2: TGGTGGCTACGACGGGATT
B2: CAAUCGC (DNA:RNA)
RNA: B1 RNA with G25C, U26A, G27A, A28U, G29C, U31C
DNA 1: CAATCTGAATTCCGGTCTCCC
DNA 2: TGGTGGCTACGACGGGATT
B3: CGUAGUC (DNA:RNA)
RNA: B1 RNA with G25C, U26G, G27U, G30U, U31C
DNA 1: CAATCTGAATTCCGGTCTCCC
DNA 2: TGGTGGCTACGACGGGATT
B4: AGCGAAC (DNA:RNA)
RNA: GGGAGACCGGAAUUCAGAUUGUCCAGCGAACUUAAAUCCCGUCGUAGCCACCA
DNA 1: CAATCTGAATTCCGGTCTCCC
DNA 2: TGGTGGCTACGACGGGATT
B5: UGUGGGU (DNA:RNA)
RNA: B1 RNA with G25U, U26G, G27U, A28G
DNA 1: CAATCTGAATTCCGGTCTCCC
DNA 2: TGGTGGCTACGACGGGATT
B6: UGUGUGC (DNA:RNA)
RNA: B4 RNA with A25U, C27U, A29U, A30G
DNA 1: CAATCTGAATTCCGGTCTCCC
DNA 2: TGGTGGCTACGACGGGATT
B7: CACUAUU (DNA:RNA)
RNA: B4 RNA with A25C, G26A, G28U, A30U, C31U
DNA 1: CAATCTGAATTCCGGTCTCCC
DNA 2: TGGTGGCTACGACGGGATT
B8: UGCGGAU (DNA:RNA)
RNA: B4 RNA with A25U, A29G, C31U
DNA 1: CAATCTGAATTCCGGTCTCCC
DNA 2: TGGTGGCTACGACGGGATT
B9: GCACGCC (DNA:RNA)
RNA: B1 RNA with U26C, G27A, A28C, G30C, U31C
DNA 1: CAATCTGAATTCCGGTCTCCC
DNA 2: TGGTGGCTACGACGGGATT
B10: GAGAAGG (DNA:RNA)
RNA: B1 RNA with U26A, G29A, U31G
DNA 1: CAATCTGAATTCCGGTCTCCC
DNA 2: TGGTGGCTACGACGGGATT
B11: UCCUCGG (DNA:RNA)
RNA: B4 RNA with A25U, G26C, G28U, A29C, A30G, C31G
DNA 1: CAATCTGAATTCCGGTCTCCC
DNA 2: TGGTGGCTACGACGGGATT
B12: UGUAACU (DNA:RNA)
RNA: B4 RNA with A25U, C27U, G28A, A30C, C31U
DNA 1: CAATCTGAATTCCGGTCTCCC
DNA 2: TGGTGGCTACGACGGGATT
B13: ACAGGGG (DNA:RNA)
RNA: B4 RNA with G26C, C27A, A29G, A30G, C31G
DNA 1: CAATCTGAATTCCGGTCTCCC
DNA 2: TGGTGGCTACGACGGGATT
B14: GGAUAUU (DNA:RNA)
RNA: B4 RNA with A25G, C27A, G28U, A30U, C31U
DNA 1: CAATCTGAATTCCGGTCTCCC
DNA 2: TGGTGGCTACGACGGGATT
B15: GAGGGCC (DNA:RNA)
RNA: B1 RNA with U26A, A28G, G30C, U31C
DNA 1: CAATCTGAATTCCGGTCTCCC
DNA 2: TGGTGGCTACGACGGGATT
B16: GGGAUCA (DNA:RNA)
RNA: B1 RNA with U26G, G29U, G30C, U31A
DNA 1: CAATCTGAATTCCGGTCTCCC
DNA 2: TGGTGGCTACGACGGGATT
B17: AAGGCAG (DNA:RNA)
RNA: B4 RNA with G26A, C27G, A29C, C31G
DNA 1: CAATCTGAATTCCGGTCTCCC
DNA 2: TGGTGGCTACGACGGGATT
B18: CUCAGCC (DNA:RNA)
RNA: B1 RNA with G25C, G27C, G30C, U31C
DNA 1: CAATCTGAATTCCGGTCTCCC
DNA 2: TGGTGGCTACGACGGGATT
B19: GAGUCCA (DNA:RNA)
RNA: B1 RNA with U26A, A28U, G29C, G30C, U31A
DNA 1: CAATCTGAATTCCGGTCTCCC
DNA 2: TGGTGGCTACGACGGGATT
B20: UGUUCGU (DNA:RNA)
RNA: B1 RNA with G25U, U26G, G27U, A28U, G29C
DNA 1: CAATCTGAATTCCGGTCTCCC
DNA 2: TGGTGGCTACGACGGGATT
B21: GUAUAAG (DNA:RNA)
RNA: B4 RNA with A25G, G26U, C27A, G28U, C31G
DNA 1: CAATCTGAATTCCGGTCTCCC
DNA 2: TGGTGGCTACGACGGGATT
B22: UUACACU (DNA:RNA)
RNA: B1 RNA with G25U, G27A, A28C, G29A, G30C
DNA 1: CAATCTGAATTCCGGTCTCCC
DNA 2: TGGTGGCTACGACGGGATT
B23: CGAGAGA (DNA:RNA)
RNA: B4 RNA with A25C, C27A, A30G, C31A
DNA 1: CAATCTGAATTCCGGTCTCCC
DNA 2: TGGTGGCTACGACGGGATT
B24: GGAAGUC (DNA:RNA)
RNA: B1 RNA with U26G, G27A, G30U, U31C
DNA 1: CAATCTGAATTCCGGTCTCCC
DNA 2: TGGTGGCTACGACGGGATT
B25: UGGCAAU (DNA:RNA)
RNA: B4 RNA with A25U, C27G, G28C, C31U
DNA 1: CAATCTGAATTCCGGTCTCCC
DNA 2: TGGTGGCTACGACGGGATT
B26: AGUCCAC (DNA:RNA)
RNA: B4 RNA with C27U, G28C, A29C
DNA 1: CAATCTGAATTCCGGTCTCCC
DNA 2: TGGTGGCTACGACGGGATT
B27: UAGGAAC (DNA:RNA)
RNA: B4 RNA with A25U, G26A, C27G
DNA 1: CAATCTGAATTCCGGTCTCCC
DNA 2: TGGTGGCTACGACGGGATT
B28: UUUAACU (DNA:RNA)
RNA: B1 RNA with G25U, G27U, G29A, G30C
DNA 1: CAATCTGAATTCCGGTCTCCC
DNA 2: TGGTGGCTACGACGGGATT
B29: ACUCAUA (DNA:RNA)
RNA: B4 RNA with G26C, C27U, G28C, A30U, C31A
DNA 1: CAATCTGAATTCCGGTCTCCC
DNA 2: TGGTGGCTACGACGGGATT
B30: CUCAAAG (DNA:RNA)
RNA: B4 RNA with A25C, G26U, G28A, C31G
DNA 1: CAATCTGAATTCCGGTCTCCC
DNA 2: TGGTGGCTACGACGGGATT
B31: UAACAUU (DNA:RNA)
RNA: B4 RNA with A25U, G26A, C27A, G28C, A30U, C31U
DNA 1: CAATCTGAATTCCGGTCTCCC
DNA 2: TGGTGGCTACGACGGGATT

Numbering of substitutions follows the chain as printed; changes in the protein carry UniProt numbers. This is one part of the list.

For this test, the target named is T1, RBFOX1 RRM. Briefly: EMSA; HiTS-Eq, 1 nM pool, 10 min; buffer printed only for the single-RNA assays: 10 mM Tris pH 7.5, 150 mM NaCl, 3.4 mM EDTA, 0.001% NP-40, 30 C. To be noted: tags: His6 N-terminal (pET28a); label: 5' 32P. The method, boiled down:
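Relative association constants, normalised to the cognate motif, were derived by comparing read counts of each RNA species with those of the control reaction. The RNA sequenced was the free fraction, separated by 8% native PAGE after a 10 min equilibration in 50 µL of 1 nM 5′-radiolabelled RNA (7 randomized nucleotides) with increasing concentrations of purified wild-type or mutant RbFox RRM.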
(In general: A gel shift assay detects complexes by their altered migration in electrophoresis.)
Turning to B1, the binding signal was 0.0137 KA relative to UGCAUGU.
B2: the binding signal was 0.0059 KA relative to UGCAUGU.
On to B3, for which the binding signal was 0.00852 KA relative to UGCAUGU.
Take B4: the binding signal was 0.00728 KA relative to UGCAUGU.
As to B5, the binding signal was 0.0124 KA relative to UGCAUGU.
The same measure for B6: 0.0333 KA relative to UGCAUGU.
As for B7, the binding signal is 0.00147 KA relative to UGCAUGU.
The same measure for B8: 0.0154 KA relative to UGCAUGU; for B9: 0.0291 KA relative to UGCAUGU; for B10: 0.0122 KA relative to UGCAUGU.
B11: the binding signal was 0.012 KA relative to UGCAUGU.
Take B12: the binding signal is 0.0125 KA relative to UGCAUGU.
B13: the binding signal was 0.00957 KA relative to UGCAUGU.
With B14, the binding signal was 0.00776 KA relative to UGCAUGU.
Turning to B15, the binding signal was 0.015 KA relative to UGCAUGU.
Turning to B16, the binding signal was 0.0351 KA relative to UGCAUGU.
For the molecule B17, the binding signal is 0.00951 KA relative to UGCAUGU.
The same measure for B18: 0.00554 KA relative to UGCAUGU.
B19: the binding signal was 0.00503 KA relative to UGCAUGU.
The same measure for B20: 0.0328 KA relative to UGCAUGU; for B21: 0.00787 KA relative to UGCAUGU.
The same measure for B22: 0.00207 KA relative to UGCAUGU.
In the case of B23, the binding signal was 0.0113 KA relative to UGCAUGU.
The same measure for B24: 0.0165 KA relative to UGCAUGU; for B25: 0.0132 KA relative to UGCAUGU.
On to B26, for which the binding signal was 0.000683 KA relative to UGCAUGU.
On to B27, for which the binding signal was 0.00731 KA relative to UGCAUGU.
The same measure for B28: 0.00774 KA relative to UGCAUGU.
The same measure for B29: 0.00097 KA relative to UGCAUGU.
Consider B30, for which the binding signal is 0.00164 KA relative to UGCAUGU.
B31: the binding signal was 0.00574 KA relative to UGCAUGU.

Source of the values: paper PMC9911399, “Two distinct binding modes provide the RNA-binding protein RbFox with extraordinary sequence specificity”.
